The list shows a part of the results. These are noisy estimates, calculated here from bound and input reads.
Biological target: T1, Pho4 (S. cerevisiae) (UniProt P07270)
T1 sequence: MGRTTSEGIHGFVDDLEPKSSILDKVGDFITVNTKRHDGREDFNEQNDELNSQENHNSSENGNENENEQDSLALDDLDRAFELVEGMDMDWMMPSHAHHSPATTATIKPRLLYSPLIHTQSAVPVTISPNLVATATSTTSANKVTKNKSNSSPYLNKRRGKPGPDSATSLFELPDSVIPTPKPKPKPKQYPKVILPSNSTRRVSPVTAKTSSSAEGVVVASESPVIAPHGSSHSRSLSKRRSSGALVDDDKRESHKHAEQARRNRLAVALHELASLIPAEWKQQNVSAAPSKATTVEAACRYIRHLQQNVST
Experiment: relative binding free energy (BET-seq); higher = weaker binding
Details: reference: library average

Sequence	relative binding free energy
TGGGTCACGTGCGGAC	0.24 kcal/mol
TGGGTCACGTGGTTCT	0.01 kcal/mol
CGTGCCACGTGGTGTG	-0.31 kcal/mol
TGGTGCACGTGTGAAC	0.05 kcal/mol
GGTTTCACGTGTGTCA	0.32 kcal/mol
GGGTGCACGTGGAAAT	0.13 kcal/mol
GGGTTCACGTGGTAGC	0.18 kcal/mol
AAAGGCACGTGATTAT	0.07 kcal/mol
GTGGCCACGTGCTGGT	-0.17 kcal/mol
GTTTGCACGTGGGCTG	-0.04 kcal/mol
AAAGGCACGTGGGACG	-0.17 kcal/mol
GTTGGCACGTGTATGG	0.06 kcal/mol
TTAGACACGTGGAGGA	-0.14 kcal/mol
AAGTGCACGTGCGATG	0.03 kcal/mol
CGCTTCACGTGGTGGG	0.17 kcal/mol
GGTTTCACGTGTGAGT	0.26 kcal/mol
GGGGCCACGTGTCATG	-0.03 kcal/mol
ATGATCACGTGGGAGG	-0.04 kcal/mol
GTAAGCACGTGTTAGT	-0.02 kcal/mol
GATCTCACGTGTGAGG	0.28 kcal/mol
ATGAGCACGTGGGCTG	-0.25 kcal/mol
AGTAACACGTGGGCAG	-0.11 kcal/mol
AATTTCACGTGAGTTA	0.32 kcal/mol

Sequence	relative binding free energy
TTTCTCACGTGAATTG	0.52 kcal/mol
GTCTACACGTGGGAGT	0.12 kcal/mol
GTGCACACGTGGGCTT	-0.08 kcal/mol
TAGGTCACGTGGACTG	0.12 kcal/mol
TATTTCACGTGACTGC	0.49 kcal/mol
ACAGTCACGTGTGGGG	0.09 kcal/mol
TTTGGCACGTGTTTCA	0.03 kcal/mol
GTTTACACGTGGTGCT	0.08 kcal/mol
TGAGCCACGTGGGTTA	-0.26 kcal/mol
CTATTCACGTGTCGTT	0.27 kcal/mol
GCGGTCACGTGTGGCA	0.27 kcal/mol
GGATTCACGTGCGGGA	0.27 kcal/mol
GGTGGCACGTGCTATA	-0.18 kcal/mol
TATTTCACGTGACTGG	0.37 kcal/mol
TTGGTCACGTGGAATG	0.23 kcal/mol
AGTTTCACGTGTTATA	0.21 kcal/mol
ATTGGCACGTGTTAAT	-0.02 kcal/mol
AATAGCACGTGGTGCT	0.04 kcal/mol
GACTTCACGTGGATGT	0.4 kcal/mol
CTTTACACGTGTAGGT	0.19 kcal/mol
TCGGACACGTGGATGT	0.04 kcal/mol
AGTTGCACGTGTTGCT	-0.26 kcal/mol
GGCGGCACGTGCGGAG	-0.07 kcal/mol

Sequence	relative binding free energy
TTTACCACGTGTCGGG	0.06 kcal/mol
CAACACACGTGGGGGG	0.01 kcal/mol
ATTATCACGTGGTTGG	0.08 kcal/mol
GGTATCACGTGCGTTA	0.08 kcal/mol
CGGGGCACGTGAGGGC	0.12 kcal/mol
CGTTGCACGTGTATAT	-0.06 kcal/mol
CGGTTCACGTGTTATT	0.18 kcal/mol
AGTTACACGTGAAGGT	0.42 kcal/mol
CGGGCCACGTGTATGG	-0.04 kcal/mol
GGGTTCACGTGTTCAC	0.34 kcal/mol
TGGGACACGTGCTTTT	-0.02 kcal/mol
TGTGTCACGTGGGTCA	-0.1 kcal/mol
CGTGTCACGTGGATTA	0.11 kcal/mol
CTTAGCACGTGTGGGC	0 kcal/mol
CGTTGCACGTGTAGGC	0.03 kcal/mol
AGGCACACGTGTGGAT	0.14 kcal/mol
GTACACACGTGTTGGT	0.07 kcal/mol
TTGAGCACGTGGACTT	-0.07 kcal/mol
TAAATCACGTGTATGT	0.14 kcal/mol
TTGTACACGTGGATCG	0.03 kcal/mol
GTGTGCACGTGACGGG	0.22 kcal/mol
TTTTTCACGTGCGAAA	0.41 kcal/mol
GGTGGCACGTGATTTC	0.02 kcal/mol

Sequence	relative binding free energy
ATTTTCACGTGTAGAT	0.31 kcal/mol
GGTTACACGTGTTGAT	0.23 kcal/mol
TAGGACACGTGGCCGT	0.02 kcal/mol
TTCTTCACGTGAGTGT	0.42 kcal/mol
TCTGGCACGTGATTGC	0.15 kcal/mol
GCAGTCACGTGGTATG	0.12 kcal/mol
GGGTCCACGTGGGCGA	-0.06 kcal/mol
TTTCGCACGTGTAGGT	0.01 kcal/mol
TACTTCACGTGGGGGA	0.04 kcal/mol
TTATTCACGTGCGAGT	0.18 kcal/mol
GATTTCACGTGTATTG	0.25 kcal/mol
CCTTACACGTGTTTTT	0.18 kcal/mol
AATCGCACGTGATGGG	0.1 kcal/mol
TAGCGCACGTGTGATT	0.08 kcal/mol
GCGTTCACGTGGCGGC	0.3 kcal/mol
GGTGTCACGTGTTGCT	0.17 kcal/mol
CGGGGCACGTGGCTTT	-0.19 kcal/mol
GTTAGCACGTGACGTG	0.24 kcal/mol
GGCTGCACGTGCTTTG	0.04 kcal/mol
TCAGGCACGTGGAATG	-0.14 kcal/mol
CGAATCACGTGTATGG	0.16 kcal/mol
TTGCCCACGTGGTGTG	-0.14 kcal/mol
ATTGTCACGTGGACGA	0.11 kcal/mol

Sequence	relative binding free energy
GTTCTCACGTGGGGAG	0.27 kcal/mol
TTGTTCACGTGAGGGA	0.4 kcal/mol
TTGTACACGTGAAGGG	0.36 kcal/mol
ATGTCCACGTGGGATA	0.07 kcal/mol
AGCGTCACGTGTCTTG	0.19 kcal/mol
TGTGTCACGTGGGAGC	-0.03 kcal/mol
CGTATCACGTGGGCGG	-0.16 kcal/mol
TTAGGCACGTGTCGGA	-0.12 kcal/mol
CATGTCACGTGGTATG	0.05 kcal/mol
ATGATCACGTGTAAGG	0.24 kcal/mol
GGTAACACGTGTGTAG	0.08 kcal/mol
AGTAACACGTGGCATT	0.02 kcal/mol
AGTAACACGTGGGGCG	-0.14 kcal/mol
AGCTGCACGTGGTATG	-0.13 kcal/mol
GGATACACGTGTGTTA	0.19 kcal/mol
TAAGGCACGTGGACTG	-0.12 kcal/mol
TTTTTCACGTGAGGCT	0.36 kcal/mol
CGTGGCACGTGTGAGT	-0.08 kcal/mol
AATTGCACGTGCTTAG	0.03 kcal/mol
TGGGGCACGTGTGAGG	-0.05 kcal/mol
CGGCTCACGTGAGGGT	0.35 kcal/mol
TGTAACACGTGTCCGG	0.01 kcal/mol
TGGATCACGTGGAAGA	0.3 kcal/mol

Source: the BET-seq Pho4 binding data (Le et al. 2018)
